According to the supplement of paper PMC8728848:
Some of the results follow.

Legend:
Assay in all cases: glycan array binding signal (z-score within array); higher = stronger binding
Settings in all cases: glycan notation: IUPAC condensed, linker removed
[1] = biological target: Gal(b1-3)GalNAc(a1-3)[Fuc(a1-2)]Gal(b1-4)Glc
Procedure, shortened: (§1)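 Glycan array data came from 3228 arrays in the Consortium for Functional Glycomics database, and only arrays with an available protein sequence were kept. Glycan names were put into IUPAC-condensed notation, and columns mapping to the same glycan were averaged. The binding signal is a within-array Z-score, averaged across arrays of one protein sequence run at different concentrations or buffers and across linkers. A negative Z-score can be read as non-binding.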

[2] = biological target: Gal(b1-3)GalNAc(a1-3)[Fuc(a1-2)]Gal(b1-4)GlcNAc
Procedure, shortened: as §1

[3] = biological target: Gal(b1-3)GalNAc(b1-3)Gal(a1-4)Gal(b1-4)Glc
Procedure, shortened: as §1

[4] = biological target: Gal(b1-3)GalNAc(b1-4)Gal(b1-4)Glc
Procedure, shortened: as §1

[5] = biological target: Gal(b1-3)GalNAc(b1-4)[Neu5Ac(a2-3)]Gal(b1-4)Glc
Procedure, shortened: as §1

Gal(b1-3)GlcNAc = biological target: Gal(b1-3)GlcNAc
Procedure, shortened: as §1

[6] = biological target: Gal(b1-3)GlcNAc(a1-6)Gal(b1-4)GlcNAc
Procedure, shortened: as §1

[7] = biological target: Gal(b1-3)GlcNAc(b1-2)Man(a1-3)[Gal(b1-3)GlcNAc(b1-2)Man(a1-6)]Man(b1-4)GlcNAc(b1-4)GlcNAc
Procedure, shortened: as §1

[8] = biological target: Gal(b1-3)GlcNAc(b1-2)Man(a1-3)[Gal(b1-3)GlcNAc(b1-2)Man(a1-6)]Man(b1-4)GlcNAc(b1-4)[Fuc(a1-6)]GlcNAc
Procedure, shortened: as §1

[9] = biological target: Gal(b1-3)GlcNAc(b1-3)Gal(b1-3)GlcNAc
Procedure, shortened: as §1

[10] = biological target: Gal(b1-3)GlcNAc(b1-3)Gal(b1-4)Glc
Procedure, shortened: as §1

[11] = biological target: Gal(b1-3)GlcNAc(b1-3)Gal(b1-4)GlcNAc
Procedure, shortened: as §1

[12] = biological target: Gal(b1-3)GlcNAc(b1-3)Gal(b1-4)GlcNAc(b1-6)[Gal(b1-3)GlcNAc(b1-3)]Gal(b1-4)Glc
Procedure, shortened: as §1

[13] = biological target: Gal(b1-3)GlcNAc(b1-3)Gal(b1-4)[Fuc(a1-3)]GlcNAc(b1-6)[Gal(b1-3)GlcNAc(b1-3)]Gal(b1-4)Glc
Procedure, shortened: as §1

[14] = biological target: Gal(b1-3)GlcNAc(b1-3)GalNAc
Procedure, shortened: as §1

[15] = biological target: Gal(b1-3)GlcNAc(b1-6)Gal(b1-4)GlcNAc
Procedure, shortened: as §1

[16] = biological target: Gal(b1-3)[Fuc(a1-4)]GlcNAc
Procedure, shortened: as §1

[17] = biological target: Gal(b1-3)[Fuc(a1-4)]GlcNAc(b1-2)Man(a1-3)[Gal(b1-3)[Fuc(a1-4)]GlcNAc(b1-2)Man(a1-6)]Man(b1-4)GlcNAc(b1-4)GlcNAc
Procedure, shortened: as §1

[18] = biological target: Gal(b1-3)[Fuc(a1-4)]GlcNAc(b1-2)Man(a1-3)[Gal(b1-3)[Fuc(a1-4)]GlcNAc(b1-2)Man(a1-6)]Man(b1-4)GlcNAc(b1-4)[Fuc(a1-6)]GlcNAc
Procedure, shortened: as §1

[19] = biological target: Gal(b1-3)[Fuc(a1-4)]GlcNAc(b1-3)Gal(b1-3)[Fuc(a1-4)]GlcNAc
Procedure, shortened: as §1

[20] = biological target: Gal(b1-3)[Fuc(a1-4)]GlcNAc(b1-3)Gal(b1-4)GlcNAc
Procedure, shortened: as §1

[21] = biological target: Gal(b1-3)[Fuc(a1-4)]GlcNAc(b1-3)Gal(b1-4)[Fuc(a1-3)]GlcNAc
Procedure, shortened: as §1

[22] = biological target: Gal(b1-3)[GlcNAc(b1-6)]GalNAc
Procedure, shortened: as §1

[23] = biological target: Gal(b1-3)[Neu5Ac(a2-6)]GalNAc
Procedure, shortened: as §1

[24] = biological target: Gal(b1-3)[Neu5Ac(a2-6)]GlcNAc(b1-6)Gal(b1-4)Glc
Procedure, shortened: as §1

[25] = biological target: Gal(b1-3)[Neu5Ac(b2-6)]GalNAc
Procedure, shortened: as §1

[26] = biological target: Gal(b1-4)GalNAc(a1-3)[Fuc(a1-2)]Gal(b1-4)GlcNAc
Procedure, shortened: as §1

[27] = biological target: Gal(b1-4)GalNAc(b1-3)[Fuc(a1-2)]Gal(b1-4)GlcNAc
Procedure, shortened: as §1

Gal(b1-4)Glc = biological target: Gal(b1-4)Glc
Procedure, shortened: as §1

Gal(b1-4)Glc6S = biological target: Gal(b1-4)Glc6S
Procedure, shortened: as §1

Gal(b1-4)GlcNAc = biological target: Gal(b1-4)GlcNAc
Procedure, shortened: as §1

[28] = biological target: Gal(b1-4)GlcNAc(a1-6)Gal(b1-4)GlcNAc
Procedure, shortened: as §1

[29] = biological target: Gal(b1-4)GlcNAc(b1-2)Man(a1-3)Man(b1-4)GlcNAc(b1-4)GlcNAc
Procedure, shortened: as §1

[30] = biological target: Gal(b1-4)GlcNAc(b1-2)Man(a1-3)[Gal(b1-4)GlcNAc(b1-2)Man(a1-6)]Man(b1-4)GlcNAc(b1-4)GlcNAc
Procedure, shortened: as §1

[31] = biological target: Gal(b1-4)GlcNAc(b1-2)Man(a1-3)[Gal(b1-4)GlcNAc(b1-2)Man(a1-6)]Man(b1-4)GlcNAc(b1-4)[Fuc(a1-6)]GlcNAc
Procedure, shortened: as §1

[32] = biological target: Gal(b1-4)GlcNAc(b1-2)Man(a1-3)[GlcNAc(b1-2)Man(a1-6)]Man(b1-4)GlcNAc(b1-4)GlcNAc
Procedure, shortened: as §1

[33] = biological target: Gal(b1-4)GlcNAc(b1-2)Man(a1-3)[Man(a1-6)]Man(b1-4)GlcNAc(b1-4)GlcNAc
Procedure, shortened: as §1

B1: CLEC-1 (Homo sapiens), Q9NZH3 (protein)
chain: MQAKYSSTRDMLDDDGDTTMSLHSQASATTRHPEPRRTEHRAPSSTWRPVALTLLTLCLVLLIGLAAWGLLFFQYYQLSNTGQDTISQMEERLGNTSQELQSLQVQNIKLAGSLQHVAEKLCRELYNKAGAHRCSPCTEQWKWHGDNCYQFYKDSKSWEDCKYFCLSENSTMLKINKQEDLEFAASQSYSEFFYSYWTGLLRPDSGKAWLWMDGTPFTSELFHIIIDVTSPRSRDCVAILNGMIFSKDCKELKRCVCERRAGMVKPESLHVPPETLGEGD
glycan array binding signal (z-score) [1]: -0.299
glycan array binding signal (z-score) [2]: -0.405
glycan array binding signal (z-score) [3]: 0.409
glycan array binding signal (z-score) [4]: -0.087
glycan array binding signal (z-score) [5]: -0.053
glycan array binding signal (z-score) (Gal(b1-3)GlcNAc): -0.265
glycan array binding signal (z-score) [6]: -0.543
glycan array binding signal (z-score) [7]: 0.001
glycan array binding signal (z-score) [8]: -0.187
glycan array binding signal (z-score) [9]: -0.027
glycan array binding signal (z-score) [10]: 0.149
glycan array binding signal (z-score) [11]: -0.215
glycan array binding signal (z-score) [12]: 0.137
glycan array binding signal (z-score) [13]: -0.376
glycan array binding signal (z-score) [14]: -0.361
glycan array binding signal (z-score) [15]: 1.24
glycan array binding signal (z-score) [16]: -0.247
glycan array binding signal (z-score) [17]: 0.409
glycan array binding signal (z-score) [18]: 0.488
glycan array binding signal (z-score) [19]: -0.604
glycan array binding signal (z-score) [20]: -0.068
glycan array binding signal (z-score) [21]: -0.182
glycan array binding signal (z-score) [22]: -0.033
glycan array binding signal (z-score) [23]: -0.182
glycan array binding signal (z-score) [24]: -0.173
glycan array binding signal (z-score) [25]: 0.026
glycan array binding signal (z-score) [26]: -0.189
glycan array binding signal (z-score) [27]: 0.051
glycan array binding signal (z-score) (Gal(b1-4)Glc): -0.204
glycan array binding signal (z-score) (Gal(b1-4)Glc6S): 0.136
glycan array binding signal (z-score) (Gal(b1-4)GlcNAc): -0.169
glycan array binding signal (z-score) [28]: -0.071
glycan array binding signal (z-score) [29]: 1.79
glycan array binding signal (z-score) [30]: 0.112
glycan array binding signal (z-score) [31]: 0.318
glycan array binding signal (z-score) [32]: -0.583
glycan array binding signal (z-score) [33]: 11
